Experimental data taken from article PMC12136788.
The list shows a part of the results.

T1: UNK ZnF1-3 (human, UniProt Q9C0B0 31-174)
T1 sequence: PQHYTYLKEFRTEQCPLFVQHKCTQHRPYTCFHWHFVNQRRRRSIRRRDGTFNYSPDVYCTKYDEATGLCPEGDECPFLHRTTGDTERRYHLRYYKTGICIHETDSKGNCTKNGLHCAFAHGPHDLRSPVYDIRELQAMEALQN

B1: 3777173_3777293_296_3pUTR_ENSG00000101224_ENST00000439880|human|control|control (ssRNA)
RNA: GGGAGUUCUACAGUCCGACGAUCGGCCAUGAGAUCCCAGCAGGAGGCCCGGGAGGUGGCCCGGACGCUGGGCGCCACCGCACACGCCUGCUGGACUGAGAGCCGAGCCUGGCGCGGGCUCCGGCUGGGGCACCUCCAUCGCGGCAACAGAGGAUUGAGCAUCA
B2: chr7:97326020:97326021:+_ENSMUSG00000039361_ENSMUST00000049537|mus_mus|motif|central (ssRNA)
RNA: GGGAGUUCUACAGUCCGACGAUCGGUUGGCUGCUGCAAGUCAAGCAGGUCAUUUGGCAGCUUAGAUGUGCUGUUAGAAGAACGGGGGGUAGAAAAUAUGUCAAUGGCUGGUGCAGUCAUUAUUCCCCCUGCUGAGGUGGACACCAACAGAGGAUUGAGCAUCA
B3: chr1:89688648:89688649:+_ENSMUSG00000026289_ENSMUST00000027512|mus_hu|FALSE|FALSE (ssRNA)
RNA: GGGAGUUCUACAGUCCGACGAUCUGGCCUUCAUCACAACCCCUGAAACGGAAAGAUGGCGCUGCUGUGCUUCUGAGCCUAGGCUUCUUGCACUAAAGCACCAAGGGCAUCGCACACAGGCUUGGCAGAGGGGCCAUGGCCAGACAACAGAGGAUUGAGCAUCA
B4: chr12:48362563:48362564:+_ENSG00000134291_ENST00000256686|hu_hu|hu_hu_hu_mus_False|48_48 (ssRNA)
RNA: GGGAGUUCUACAGUCCGACGAUCUCCGUCAAGCCCUUCGAUAGACCCUUGCGGGGGAAACUGUAAUCACUUUGUAUGGGGAAGGAAAAAAAAAGCCAAAAACUUUCCAAAAAGCGGGGGUGGGGUGAGGCGGGAGGGGGAGGUCAACAGAGGAUUGAGCAUCA
B5: chr8:113366719:113366720:-_ENSMUSG00000033732_ENSMUST00000042012|mus_mus|FALSE|FALSE (ssRNA)
RNA: GGGAGUUCUACAGUCCGACGAUCCAUAUUCUUUGAUGGCUGGUAUUCCAAGAUAACAAUCCGGCCUGAGUCACUGCCAACUACAAUGUAGUCUUUGGUGCCACCUGUUAGCCUAAACGCCAUAAGUGACCGGAUAACACCAAACAACAGAGGAUUGAGCAUCA
B6: chr2:217001844:217001845:+_ENSG00000079246_ENST00000392132|hu_hu|hu_hu_hu_mus_False|38_38 (ssRNA)
RNA: GGGAGUUCUACAGUCCGACGAUCACCAACUUGAGGAUUAGAUCUUUUGUCAUAAGCAUAUCGGACGAUGGCGACCAUGUUUAACUCAUCCAAAGCAUGAAUCAGGGAGGAAAGGGCAACAGCUGCCGCCUCAUCAUCCUUUGCCAACAGAGGAUUGAGCAUCA
B7: 135886410_135886530_3772_3pUTR_ENSMUSG00000039959_ENSMUST00000060311|mouse|control|control (ssRNA)
RNA: GGGAGUUCUACAGUCCGACGAUCACCAAAGCGUAGCCUGAGCCGCACCGGGGUGUGCUGGCGCUGUGGGGGGGCUUCCUCUCAGAAGGCUCAGAGCUCAGGGUCAGGCUGGGUGGGGGAGGAAUCCUUUUUGGGAAAGUUGGUCAACAGAGGAUUGAGCAUCA
B8: chr2:232320318:232320319:-_ENSG00000115053_ENST00000322723|hu_hu|hu_hu_hu_mus_True|58_68 (ssRNA)
RNA: GGGAGUUCUACAGUCCGACGAUCACUAUUAAAGUCUACAAAACCAAACCCUUUGGAAGAACCAGUUUCCCGGUCAGUAACUAUCCUUGCACGAACAGAGCCCUCAAAUGAUUCUUUUAAGGUCUCUUCAGUGGUAUCCUCAGACAACAGAGGAUUGAGCAUCA
B9: 115046742_115046862_1765_3pUTR_ENSG00000182985_ENST00000542447|human|control|control (ssRNA)
RNA: GGGAGUUCUACAGUCCGACGAUCGAACAGAAAAGGGAAGGAAAAGAGUCUAAGGAAUCCCAGCAGGCAAAUUCCAAAAUGGGAGAUUUUGGAAAAAAUCCGAAAUUGGGGUAGAGGGAGGAAAUAAAUGUGCACAAAGGGGGACAACAGAGGAUUGAGCAUCA
B10: 62242893_62244831_779_CDS_ENSG00000023608_ENST00000216294|human|control|control (ssRNA)
RNA: GGGAGUUCUACAGUCCGACGAUCUUUUUCUUCUCCAUCAUUAGUUUUUGACUUUAAGGAUGGAUUCUUUCUGUCUUUGUGCCACUGCUGAUGCUCCAAAACUAUGUUCUUAAUAUUGUCAAAAAAAUCAUCCUUUAUCAAGCUCAACAGAGGAUUGAGCAUCA
B11: chr17:76047126:76047127:+_ENSG00000078687_ENST00000588847|hu_hu|motif|central (ssRNA)
RNA: GGGAGUUCUACAGUCCGACGAUCUGUCUGUUUCACAGAAGCAGCUCCUCCCCAGUUACUCACAUUGUUGUCUUGGGGUUUGCGGGCCCAGUUCUGUUGGGGGCCAGGUUUUAAAGUCUCCCCCCAGUUUGUACCUGGAUUGGCCAACAGAGGAUUGAGCAUCA
B12: chr8:28149726:28149727:+_ENSMUSG00000031483_ENSMUST00000033873|mus_hu|FALSE|FALSE (ssRNA)
RNA: GGGAGUUCUACAGUCCGACGAUCCUCCAGCUAUCAACCCACGGCAAUCAAUCCAGCAGUAUCAUUUAUAGAAUGAUUACUAAAACAAGAAUCAUUUCUCAGUUACAAAUGGGGUCAUUAAGCCCUUGGGGCUCUUUGAAAGUACAACAGAGGAUUGAGCAUCA
B13: 62370663_62371264_2561_CDS_ENSG00000149499_ENST00000394773|human|control|control (ssRNA)
RNA: GGGAGUUCUACAGUCCGACGAUCCCGGUCUCGGCUCUCAUAGCGAUUCUUCAGCUGCUUGCAGCCUCCAGCCACGUCCCAGUAAAGAAUCUCAUAGUCCCCAGAAUUGGACAUGAUGAAAUUCCCAUCCUUGGACCAGUCAAGCAACAGAGGAUUGAGCAUCA
B14: chr11:18503389:18503390:-_ENSG00000074319_ENST00000251968|hu_hu|hu_hu_hu_mus_True|88_88 (ssRNA)
RNA: GGGAGUUCUACAGUCCGACGAUCAUUUUCCAUUUUCUCCAGAGCAGAACUGAGUUCUUCAUCCUUCUUUUUCAAAAGUUCUAUGUUUUUAUCAACUUCAGCUACUUCUUGAUCUAAGCGGGUGACCAUCUCUUCCAGUUUCUGCAACAGAGGAUUGAGCAUCA
B15: chr10:80930753:80930754:-_ENSMUSG00000034818_ENSMUST00000145375|mus_mus|FALSE|FALSE (ssRNA)
RNA: GGGAGUUCUACAGUCCGACGAUCGUGGACAACACUGUUGUCUGUUGCUGCAUGAGAGCCUGGGCGUAGGCACUGUAGGGGCUGAAGGGCAGGGUGAGGGACGGCGUCAGGAUGCCCAGCUGGCCAACCAUCUGCUGCAUACGCCAACAGAGGAUUGAGCAUCA
B16: chr12:40763261:40763262:-_ENSMUSG00000047446_ENSMUST00000101472|mus_hu|FALSE|FALSE (ssRNA)
RNA: GGGAGUUCUACAGUCCGACGAUCAUUGAACUGCAGCCUGUAUAAGACAGUUGUCUUUCCAGCACAGUCCAAACCCAGAAUAACAAUGUGGAAAGACUGAAAUGAAGGCAGGUUGGACAGGAUAGAAGUCUGGUCUGACAGCCCCAACAGAGGAUUGAGCAUCA
B17: chr10:97366135:97366136:-_ENSG00000059573_ENST00000371224|hu_hu|motif|central (ssRNA)
RNA: GGGAGUUCUACAGUCCGACGAUCAUGACUACAUGUGAAAGAAAUAAAAUGUGAAAAGAUUUGUUAAGGAUGACUGGCUCGGGUACCAACUAAAUGCCAAGGGGGACUGUAAGUCACUGAGGUGACACAAAGCAGCCAUGGGUUCAACAGAGGAUUGAGCAUCA
B18: chr10:84137372:84137373:+_ENSMUSG00000034453_ENSMUST00000077175|mus_hu|motif|central (ssRNA)
RNA: GGGAGUUCUACAGUCCGACGAUCGUAAGAGAGCUCUUCCCCACAUAAUAAAUUCACAUCUUCUACUCCCAAGUUACUGGCGGAUUUAACAAUGGGUCCAUCUUCCAUAUCAGUUGUGAUGUGUGUCAUAAGGGCCAAGUUUUUCAACAGAGGAUUGAGCAUCA
B19: chr10:33190432:33190433:-_ENSG00000150093_ENST00000302278|hu_mus|hu_hu_hu_mus_True|48_78 (ssRNA)
RNA: GGGAGUUCUACAGUCCGACGAUCUACAUUUUCCAAACCUGCAUGUGAAUAAAACCCUGGCAAUAUUGCCCCAAAACUACCCUACUGUGACUAUGGAGCUGCUGCUGUGAGCUUGGUGUUGCAAAAUCCGCCUGAGUAGGAUUCCAACAGAGGAUUGAGCAUCA
B20: chr15:76014475:76014476:-_ENSMUSG00000022565_ENSMUST00000071869|mus_mus|FALSE|FALSE (ssRNA)
RNA: GGGAGUUCUACAGUCCGACGAUCAAGCUCUUGGAGAGUGGCAGGCACAGCCUGGGCCUCCUUCAGCUGCUCCUCAUGGGUUUUAAGCACCUCCUCAGCCCCCUGGGUACUGCGAAUCACCAAGCUGAUGGUCUUGAGUUUCUCCAACAGAGGAUUGAGCAUCA
B21: chr1:171510215:171510216:+_ENSG00000117523_ENST00000367742|hu_hu|FALSE|FALSE (ssRNA)
RNA: GGGAGUUCUACAGUCCGACGAUCAGGAUAAUCUCGAGUGUGUCCCCUACCACCCCUGCCACGCCCUCCAUAAGAACCUCUAUAGCUUCGACCUCUGGAGUAAUAUUCACCUCGGCCUCGACCUCUGUAUCCUUGAUCUGGAAACAACAGAGGAUUGAGCAUCA
B22: chr8:74858975:74858976:-_ENSG00000154582_ENST00000284811|hu_mus|hu_hu_hu_mus_True|38_48 (ssRNA)
RNA: GGGAGUUCUACAGUCCGACGAUCGACCUUGUAGGUAAAAUACAUGCACACUUUUGAUAGCACAUGUGAGGGGAUCUCUCUAAAAUUGACCUCAUUGGUUUCGUUCUCAGCAAACUGACCUGGACCACUCAACAUAGCCUUUAUCAACAGAGGAUUGAGCAUCA

target: T1, UNK ZnF1-3; experiment: nsRBNS (natural sequence RNA bind-n-seq); RBNS binding buffer (assumed for nsRBNS): 25 mM Tris pH 7.5, 150 mM KCl, 3 mM MgCl2, 0.01% Triton X-100, 500 ug/ml BSA, 20 U/ml SUPERase-In, 4 C; UNK is unkempt and MSI1 is Musashi-1; names of the RNAs are library labels; protein concentration not given here; high values mean tight binding

| Binder | binding signal [enrichment R] |
| --- | --- |
| B1 | 0.471 |
| B2 | 1.05 |
| B3 | 0.983 |
| B4 | 3.09 |
| B5 | 0.694 |
| B6 | 1.72 |
| B7 | 1.39 |
| B8 | 0.654 |
| B9 | 3.01 |
| B10 | 0.607 |
| B11 | 1 |
| B12 | 1.5 |
| B13 | 0.653 |
| B14 | 0.504 |
| B15 | 0.972 |
| B16 | 0.945 |
| B17 | 3.12 |
| B18 | 0.654 |
| B19 | 1.08 |
| B20 | 0.911 |
| B21 | 1.03 |
| B22 | 0.845 |
